Laboratory results taken from article PMC5700166.
Only a part is listed here, and it is no random draw. The list includes weakly bound sequences.

Assays:
Assay in all cases: protein-binding microarray (PBM)
Conditions in all cases: PBM: ~300 nM protein, 6 mM HEPES pH 7.8, 80 mM KCl, 0.5 mM EDTA, 0.5 mM EGTA, 6% glycerol, 35 ng/ul poly-dIdC, 1% milk, 1 h, room temperature; Ap Aiptasia and Nv Nematostella (sea anemones) / Co Capsaspora / Aq Amphimedon (sponge) / Dm Drosophila / Hu human; RHD is the Rel homology domain; high values mean tight binding; most listed sequences are background and not binding sites; double strand, one strand shown
[1] = target: T1, GST-Ap-NF-kB RHD (UniProt A0A913YAJ5)
T1 sequence: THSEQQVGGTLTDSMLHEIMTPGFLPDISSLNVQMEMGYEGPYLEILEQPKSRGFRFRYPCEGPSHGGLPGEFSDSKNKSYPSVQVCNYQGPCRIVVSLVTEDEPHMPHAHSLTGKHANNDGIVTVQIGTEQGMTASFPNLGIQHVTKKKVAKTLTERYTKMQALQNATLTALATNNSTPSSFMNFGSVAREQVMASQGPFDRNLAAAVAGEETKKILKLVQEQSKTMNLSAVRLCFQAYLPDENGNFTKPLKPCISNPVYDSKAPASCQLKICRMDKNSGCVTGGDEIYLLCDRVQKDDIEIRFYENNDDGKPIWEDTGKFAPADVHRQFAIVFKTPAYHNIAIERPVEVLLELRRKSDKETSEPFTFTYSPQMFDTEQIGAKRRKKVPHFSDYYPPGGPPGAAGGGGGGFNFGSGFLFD

[2] = target: T2, GST-Nv-NF-kB (Cys allele) (UniProt E5G601)
T2 sequence: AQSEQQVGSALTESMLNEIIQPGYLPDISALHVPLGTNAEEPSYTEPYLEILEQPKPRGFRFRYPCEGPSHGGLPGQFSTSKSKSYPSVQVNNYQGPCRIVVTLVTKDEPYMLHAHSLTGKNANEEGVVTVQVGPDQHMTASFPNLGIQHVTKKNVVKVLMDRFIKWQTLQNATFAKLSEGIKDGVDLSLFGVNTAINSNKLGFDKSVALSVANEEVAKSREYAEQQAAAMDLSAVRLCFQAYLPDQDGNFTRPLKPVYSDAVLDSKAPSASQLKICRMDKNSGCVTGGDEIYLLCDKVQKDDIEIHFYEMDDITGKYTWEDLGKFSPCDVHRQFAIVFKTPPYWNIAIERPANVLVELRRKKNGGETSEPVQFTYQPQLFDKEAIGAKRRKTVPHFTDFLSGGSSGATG

[3] = target: T3, GST-Co-NF-kB (UniProt F1ARL5)
T3 sequence: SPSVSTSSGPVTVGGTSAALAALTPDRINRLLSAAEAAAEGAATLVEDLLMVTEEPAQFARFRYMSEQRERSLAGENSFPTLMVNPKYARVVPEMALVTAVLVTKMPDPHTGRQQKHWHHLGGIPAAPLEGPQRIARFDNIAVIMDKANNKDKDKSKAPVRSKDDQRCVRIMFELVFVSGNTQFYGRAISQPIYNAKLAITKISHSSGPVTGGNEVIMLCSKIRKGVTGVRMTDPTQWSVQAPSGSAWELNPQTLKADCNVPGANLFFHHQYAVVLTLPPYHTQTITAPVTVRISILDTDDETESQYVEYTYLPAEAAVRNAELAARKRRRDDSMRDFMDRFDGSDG

[4] = target: T4, GST-Dm-Relish (UniProt Q94527)
T4 sequence: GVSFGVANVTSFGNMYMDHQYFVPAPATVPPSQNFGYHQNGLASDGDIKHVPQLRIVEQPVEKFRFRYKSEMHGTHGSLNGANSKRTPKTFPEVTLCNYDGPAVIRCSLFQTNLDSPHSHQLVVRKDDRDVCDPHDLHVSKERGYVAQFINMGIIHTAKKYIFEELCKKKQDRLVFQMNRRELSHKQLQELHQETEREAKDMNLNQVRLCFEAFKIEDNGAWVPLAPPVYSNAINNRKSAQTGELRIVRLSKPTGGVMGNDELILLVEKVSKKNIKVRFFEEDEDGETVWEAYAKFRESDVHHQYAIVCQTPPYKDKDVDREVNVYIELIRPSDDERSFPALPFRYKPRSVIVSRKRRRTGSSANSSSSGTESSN

[5] = target: T5, GST-Aq-NF-kB (UniProt A9Y5G7)
T5 sequence: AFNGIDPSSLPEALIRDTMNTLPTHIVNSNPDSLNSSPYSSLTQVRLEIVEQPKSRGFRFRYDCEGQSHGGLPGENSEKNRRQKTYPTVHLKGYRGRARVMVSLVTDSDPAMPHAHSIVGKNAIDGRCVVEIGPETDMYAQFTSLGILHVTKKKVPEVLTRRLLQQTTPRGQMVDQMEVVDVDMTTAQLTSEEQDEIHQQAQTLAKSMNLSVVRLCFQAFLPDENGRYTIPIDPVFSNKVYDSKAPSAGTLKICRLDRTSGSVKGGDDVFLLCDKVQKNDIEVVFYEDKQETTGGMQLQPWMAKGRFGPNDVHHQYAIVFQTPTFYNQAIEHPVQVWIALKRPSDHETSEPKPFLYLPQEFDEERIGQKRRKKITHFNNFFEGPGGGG

Row | Sequence | binding signal [1] [z-score] | binding signal [2] [z-score] | binding signal [3] [z-score] | binding signal [4] [z-score] | binding signal [5] [z-score]
1 | CCGATTAACATCAATAGTTGTACTGATGTTAATCGGGTCTTGATTCGCTTGACGCTGCTG | -0.932 | -0.908 | -0.158 | 0.502 | -0.467
2 | CCGATTAACATCAGAATCTTTGGTGATGTTAATCGGGTCTTGATTCGCTTGACGCTGCTG | 0.135 | -0.971 | 0.0687 | -0.228 | -0.203
3 | CCGATTAACATCACGTCTCCACATGATGTTAATCGGGTCTTGATTCGCTTGACGCTGCTG | -0.441 | 0.503 | -0.128 | -0.17 | -0.423
4 | CCGATTAACATCACGTACTACAATGATGTTAATCGGGTCTTGATTCGCTTGACGCTGCTG | -0.126 | -0.21 | 0.507 | 0.0356 | -0.177
5 | CCGATTAACATCATCTGTGAGCCTGATGTTAATCGGGTCTTGATTCGCTTGACGCTGCTG | -0.439 | -0.242 | -0.241 | -0.873 | -0.598
6 | CCGATTAACATCAAAAACCTGGATGATGTTAATCGGGTCTTGATTCGCTTGACGCTGCTG | 0.0865 | -0.0887 | 0.382 | -0.245 | -0.0554
7 | CCGATTAACATCAATGGCGATGATGATGTTAATCGGGTCTTGATTCGCTTGACGCTGCTG | -0.311 | -0.32 | -0.0605 | -0.249 | -0.399
8 | CCGATTAACATCAGAGATCCATTTGATGTTAATCGGGTCTTGATTCGCTTGACGCTGCTG | -0.806 | -0.851 | -0.63 | -0.797 | -0.458
9 | CCGATTAACATCAGGAATATCCATGATGTTAATCGGGTCTTGATTCGCTTGACGCTGCTG | -0.515 | -0.207 | -0.802 | -0.13 | 0.75
10 | CCGATTAACATCAAGGAGATTCCTGATGTTAATCGGGTCTTGATTCGCTTGACGCTGCTG | -0.0544 | -0.226 | -0.118 | 0.00713 | 1.73
11 | CCGATTAACATCATTTGTGCGCCTGATGTTAATCGGGTCTTGATTCGCTTGACGCTGCTG | -0.303 | 0.15 | -0.311 | 0.109 | -0.109
12 | CCGATTAACATCAAATGTACTAATGATGTTAATCGGGTCTTGATTCGCTTGACGCTGCTG | -0.262 | 0.164 | 0.296 | 1.5 | -0.171
13 | CCGATTAACATCACAAAAAATCCTGATGTTAATCGGGTCTTGATTCGCTTGACGCTGCTG | 0.198 | 0.394 | 0.414 | 1.98 | 1.44
14 | CCGATTAACATCACAATAGGCGATGATGTTAATCGGGTCTTGATTCGCTTGACGCTGCTG | -0.355 | -0.2 | 0.114 | 0.125 | -0.114
15 | CCGATTAACATCATTCCGGTATGTGATGTTAATCGGGTCTTGATTCGCTTGACGCTGCTG | 0.291 | -0.432 | -0.263 | 0.0822 | 0.594
16 | CCGATTAACATCAGAAGTAGGGTTGATGTTAATCGGGTCTTGATTCGCTTGACGCTGCTG | 0.418 | 0.373 | 0.258 | -0.178 | -0.0133
17 | CCGATTAACATCACCCAAAAGCATGATGTTAATCGGGTCTTGATTCGCTTGACGCTGCTG | 0.0226 | -0.0321 | 0.249 | 0.604 | 0.382
18 | CCGATTAACATCACGCAGTGTTATGATGTTAATCGGGTCTTGATTCGCTTGACGCTGCTG | -0.338 | -0.778 | -0.725 | 0.000736 | -0.462
19 | CCGATTAACATCAGTGTCCTGCATGATGTTAATCGGGTCTTGATTCGCTTGACGCTGCTG | 0.392 | -0.0101 | -0.611 | -0.495 | -0.372
20 | CCGATTAACATCACAGCAGTACCTGATGTTAATCGGGTCTTGATTCGCTTGACGCTGCTG | 0.401 | 0.442 | -0.731 | 0.6 | 0.333
21 | CCGATTAACATCACATCTAGGAGTGATGTTAATCGGGTCTTGATTCGCTTGACGCTGCTG | -1.09 | -0.439 | -0.777 | 0.333 | -0.605
22 | CCGATTAACATCACGAAGCTTGATGATGTTAATCGGGTCTTGATTCGCTTGACGCTGCTG | -0.326 | -0.447 | -0.674 | -0.245 | -0.762
23 | CCGATTAACATCACCCACAGCCGTGATGTTAATCGGGTCTTGATTCGCTTGACGCTGCTG | 0.31 | -0.13 | 0.925 | 0.997 | 0.397
24 | CCGATTAACATCACGGGCACTCCTGATGTTAATCGGGTCTTGATTCGCTTGACGCTGCTG | 0.11 | -1.18 | 0.476 | 0.207 | 0.479
25 | CCGATTAACATCAGTGCTCGGTCTGATGTTAATCGGGTCTTGATTCGCTTGACGCTGCTG | -0.153 | 0.218 | -0.71 | -0.792 | -0.32
